Measurements reported in PubChem BioAssay AID624417 (National Center for Advancing Translational Sciences (NCATS), 2012).
Values joined by “and” are separate entries in the source; they are usually repeats but may differ in a detail not shown here. Identical values can stand only once. Among all 410,000 compounds or so, about 6,400 (1.6%) were called active. Inconclusive results, whose numbers are uncertain, are shown with a selection of clear calls. The call rests on the fitted dose curve; in most records, active means well fitted inhibition curve with a large enough effect; inconclusive means small, poorly fitted or top-dose-only effect; inactive means no such curve, though single readings can be large or run the other way. Potencies beside an inconclusive call are fits to weak or partial responses and may not hold up.

These compounds were tested against Glucagon-like peptide 1 receptor (Homo sapiens) (UniProt P43220) (assay: qHTS of GLP-1 Receptor Inverse Agonists (Inhibition Mode)). Conditions: HEK293 GLP-1R CRE-luciferase, luminescence, 24 h, GLP-1R form is constitutively active; activity change, negative = inhibition: at 38.3 µM (top of the series) unless noted.
UniProt P43220, sequence (P43220 whole entry, looked up): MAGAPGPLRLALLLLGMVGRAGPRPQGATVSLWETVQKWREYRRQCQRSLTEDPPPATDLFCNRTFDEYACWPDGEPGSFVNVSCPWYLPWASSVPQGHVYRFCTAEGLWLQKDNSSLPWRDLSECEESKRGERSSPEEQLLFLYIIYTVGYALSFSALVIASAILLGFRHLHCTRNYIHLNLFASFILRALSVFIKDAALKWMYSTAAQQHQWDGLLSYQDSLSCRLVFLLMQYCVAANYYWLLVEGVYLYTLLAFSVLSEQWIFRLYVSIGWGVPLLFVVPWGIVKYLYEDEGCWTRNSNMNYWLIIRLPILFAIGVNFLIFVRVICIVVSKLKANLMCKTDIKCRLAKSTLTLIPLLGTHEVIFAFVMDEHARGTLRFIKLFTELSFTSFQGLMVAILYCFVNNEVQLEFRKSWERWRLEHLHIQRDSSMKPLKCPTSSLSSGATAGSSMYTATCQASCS
Summary of the method: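 qHTS in 1536-well format: reporter HEK293 cells expressing constitutive GLP-1R activity in DMEM + 10% Nu serum, 24 hr with compounds at 37 deg C, luminescence read after 12 min with detection reagent.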
Further: nearly all actives have a fitted effect of over 55% in size.
On the % scale 0 is the no-effect control and ±100 the full control effect; potency means the concentration at half of the fitted maximal effect; tags describe the fitted curve by direction and shape.

Potency, inconclusive:
O=[N+]([O-])c1ccc(OCC(O)CNCCNc2nccc(C(F)(F)F)n2)cc1 (configuration not stated) 10 µM [inhibitor, partial curve]
Cc1cccc(C)c1NC(=O)c1ccc(-c2cc(F)ccc2F)o1 11.2 µM [inhibitor, partial curve, poor fit]
CN(C)S(=O)(=O)c1cccc(NC(=S)N/N=C/c2ccco2)c1 2 µM [inhibitor, partial curve, poor fit]
CCN(Cc1ccccc1)C(c1ccccn1)c1nnnn1C(C)(C)CC (configuration not stated) 11.2 µM [inhibitor, single point]
Cc1ccc(N2C(=O)c3ccccc3NC2c2ccccc2O)cc1 (configuration not stated) 12.6 µM [inhibitor, single point]
Cc1ccc(S(=O)(=O)Nc2ccc(Nc3ccccc3)cc2)cc1 7.08 µM [inhibitor, partial curve, poor fit]
CCOc1ccc2nc(NC(=O)c3ccco3)sc2c1 8.91 µM [inhibitor, single point]
O=C(NC(=S)Nc1ccccc1N1CCCCC1)c1ccc(F)cc1Cl 5.01 µM [inhibitor, full curve, poor fit]
O=C(Nc1ccccc1)c1sccc1Oc1ccc([N+](=O)[O-])cc1F 11.2 µM [inhibitor, partial curve, poor fit]
Cc1cccc(-n2c(C)cc(/C=N\NC(=O)c3cccs3)c2C)c1 22.4 µM [inhibitor, partial curve, poor fit]
CCC(C)c1ccc(Nc2ncccc2C#N)cc1 (configuration not stated) 22.4 µM [inhibitor, single point]
Cc1cccc(C)c1OCC(=O)N1CCc2ccccc2C1 15.8 µM [inhibitor, single point]
CC(C)(C)c1csc(NNC(=O)c2ccc(Cl)cc2)n1 12.6 µM [inhibitor, single point]
Cc1ccc(-c2csc(N3CCC(NS(=O)(=O)c4ccc5c(c4)OCCO5)CC3)n2)cc1 11.2 µM [inhibitor, partial curve, poor fit]
COc1ccc(Cl)cc1NC(=O)CN(C)C(=O)c1cc2c(F)cccc2s1 8.91 µM [inhibitor, partial curve, poor fit]
Fc1ccccc1NC(=S)N(CCN1CCCCC1)Cc1ccco1 11.2 µM [inhibitor, single point]
C/C(=N\NC(=S)Nc1ccc(F)cc1)c1ccc2c(c1)OCCO2 3.16 µM [inhibitor, full curve, poor fit]
CC(C)Oc1ccc(CNC(=O)C(C)n2ccc3cc(S(=O)(=O)N4CCCCCC4)ccc32)cc1 (configuration not stated) 8.91 µM [inhibitor, partial curve, poor fit]
N/C(=N\OC(=O)COc1ccc(Br)cc1Cl)c1ccncc1 28.2 µM [inhibitor, single point]
O=C(NCc1cccc(Br)c1)C1CCCCN1S(=O)(=O)c1ccc(F)cc1 (configuration not stated) 11.2 µM [inhibitor, single point]
OCCN1c2ccccc2CCc2ccccc21 14.1 µM [inhibitor, single point]
COc1cccc(OCC(O)CN2CCN(c3ccccc3)CC2)c1 (configuration not stated) 11.2 µM [inhibitor, partial curve, poor fit] and 10 µM [inhibitor, single point]
COc1ccc(CCNCc2ccc(OCc3ccccc3)cc2)cc1 11.2 µM [inhibitor, partial curve, poor fit]
O=C(NCCN1CCOCC1)c1ccc2c(c1)N(Cc1c(F)cccc1Cl)C(=O)c1ccccc1S2 25.1 µM [inhibitor, single point]
Cc1nn(-c2ccccc2)c(Cl)c1C(=O)OC(C)C(=O)NC(=O)NC1CCCCC1 (configuration not stated) 12.6 µM [inhibitor, partial curve, poor fit]
CCn1nc(C(=O)O)c(=O)c2cc3c(cc21)OCO3 20 µM [inhibitor, partial curve, poor fit]
COc1ccc(N2CC(C(=O)Nc3ccccc3N3CCCC3)CC2=O)c(OC)c1 (configuration not stated) 7.94 µM [inhibitor, partial curve, poor fit]
CC(C)c1ccc(CNc2ccc([N+](=O)[O-])cn2)cc1 7.08 µM [inhibitor, partial curve, poor fit]
O=C1CCCC(=O)N1c1ccc(N2CCN(c3ccccc3)CC2)c([N+](=O)[O-])c1 2.82 µM [inhibitor, partial curve, poor fit]
Cc1ccc(-n2c(=O)c3c(cnn3C)n(CC(=O)Nc3cccc(Cl)c3)c2=O)cc1 17.8 µM [inhibitor, single point]
Cc1ccc(CNC(=O)C2CCN(C(=O)N3CC(C)Oc4ccc(Cl)cc43)CC2)cc1 (configuration not stated) 22.4 µM [inhibitor, single point]
CCC(C(=O)NCCc1ccc(OC)c(OC)c1OC)n1nc(C)c2sc3ccccc3c2c1=O (configuration not stated) 31.6 µM [inhibitor, single point]
COc1cc2nc(N(CCCN(C)C)C(=O)c3ccc(S(=O)(=O)N(C)C4CCCCC4)cc3)sc2cc1OC 28.2 µM [inhibitor, single point]
Cc1csc(N2CCCC2c2nc3cc(Cl)c(N4CCCCC4)cc3n2CCCO)n1 (configuration not stated) 28.2 µM [inhibitor, single point]
CC(C)c1ccc(/C=C/C(=O)N2CCCCCC2)cc1 28.2 µM [inhibitor, single point]
CN(Cc1c(F)cccc1Cl)C(=O)c1ccc(COc2ccccc2)cc1 7.08 µM [inhibitor, partial curve, poor fit]
O=C(CCn1cnc2onc(-c3ccc(F)cc3)c2c1=O)Nc1cccc(C(F)(F)F)c1 11.2 µM [inhibitor, partial curve, poor fit]
Cc1cc(C)c(C)c(S(=O)(=O)Nc2ccccc2C(=O)NCCCn2ccnc2)c1C 12.6 µM [inhibitor, partial curve, poor fit]
O=C(c1cnccn1)N1CCc2c([nH]c3ccccc23)C1c1cccc(Cl)c1 (configuration not stated) 5.62 µM [inhibitor, partial curve, poor fit]
Cc1ccc(-n2c(C)c([N+](=O)[O-])c3ccc(O)c(CN(C)C)c32)cc1 3.55 µM [inhibitor, full curve, poor fit]
O=C(Nc1ccc(-c2cn3ccccc3n2)cc1)c1ccco1 15.8 µM [inhibitor, single point]
COc1ccccc1C1(CCNC(C)c2cccs2)CCOC(C(C)C)C1 (configuration not stated) 3.55 µM [inhibitor, partial curve, poor fit]
Cc1ccccc1OCc1occc1C(=O)Nc1cccc(-n2cnnn2)c1 3.16 µM [inhibitor, full curve]
COc1ccc(Cn2ccc(=O)c(Cc3c(Cl)cccc3Cl)c2C)cc1 28.2 µM [inhibitor, single point]
CC1CCC2(CC1)NC(=O)N(CC(=O)Nc1ccccc1-c1ccccc1)C2=O (configuration not stated) 28.2 µM [inhibitor, single point]
CC1(c2ccccc2)NC(=O)N(CC(=O)Nc2ccccc2N2CCCCC2)C1=O (configuration not stated) 12.6 µM [inhibitor, partial curve, poor fit]
O=C(CSc1nc2[nH]ncc2c(=O)n1-c1ccccc1)c1ccc2c(c1)OCCO2 28.2 µM [inhibitor, single point]

Potency, active:
O=C(Nc1nc(-c2cccs2)cs1)c1cccc(S(=O)(=O)N2CCCCCC2)c1 5.62 µM

Activity change, negative = inhibition, inactive:
O=c1c(C(c2ccc(O)cc2)c2c(O)nc3n(c2=O)CCCS3)c(O)nc2n1CCCS2 1.47%
CCN1CC(CN(C)Cc2nc(-c3ccc(Cl)cc3)no2)CC1=O (configuration not stated) -4.38%
O=[N+]([O-])c1ccccc1/C=N/Nc1nnc(-c2ccccc2)c(-c2ccccc2)n1 14.2%
CCc1ccc(CNC(=O)CN2C(=O)C3CCCCN3c3ccc(C(=O)N4CCCC4)cc32)cc1 (configuration not stated) 2.25%
CCc1ccccc1NC(=O)CCn1cccn1 5.71%
O=C(NN1C(=O)c2cc(Br)ccc2NC1c1cc(Br)cc(Br)c1O)c1ccncc1 (configuration not stated) -29.1%
Cc1cc(C)cc(NC(=O)C(C)N2Cc3ccccc3C2=O)c1 (configuration not stated) 14.6%
CCOc1ccccc1NC(=O)CN1C(=O)CC(c2ccc(C)c(C)c2)=Nc2ccccc21 16.7%
Cc1noc(Cn2c(=O)c3ccccc3n(CC(=O)Nc3cc(Cl)ccc3C)c2=O)n1 11.3%
O=C(CC[C@H]1O[C@@H](n2cnc3c(NC(=O)c4ccccc4)ncnc32)[C@H](O)[C@@H]1O)NCc1ccco1 12.8%
Cc1c(Cl)cccc1NC(=O)CCCCCN1C(=O)CCC1=O 4.47%
COc1ccc(NC(=O)Cn2nc(C(=O)O)c3ccccc3c2=O)cc1S(=O)(=O)N1CCCCC1 3.41%
Cc1cc(C)cc(N2C(=O)CC(Sc3ccccc3C(=O)O)C2=O)c1 (configuration not stated) 1.5%
CCC1=NN2C(=N)/C(=C\c3cccn3-c3ccc(Cl)cc3)C(=O)N=C2S1 8.04%
